The source gives no read counts; variants with many changes may rest on few reads.

B1: CPEB3 Ribozyme (parent)
chain: UAACAGGGGGCCACAGCAGAAGCGUUCACGUCGCAGCCCCUGUCAGAUUCUGGUGAAUCUGCGAAUUCUGCUGUAUAUCUC

The variants in the series derive from B1. The experiment in a line: self-cleavage, relative activity (ratio to wild type); higher = more cleavage; in vitro, sequencing. Put shortly:
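Barcoded CPEB3 ribozyme mutants, produced by rounds of error-prone PCR, self-cleaved while being transcribed with T7 RNA polymerase for 5 hours at 37°C and during a subsequent 15 min DNase I step before EDTA was added. Sequencing of template-switched cDNA on Illumina gave cleaved and total reads, and DNA sequencing assigned barcodes to variants. Each variant's relative activity is its cleaved/total read fraction divided by the unmutated ribozyme's fraction, averaged across three batches. A variant needed a minimum of 5 reads.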
With A2G U26C A35U A45U U69C, the self-cleavage came out at 0.12. For the variant A2G A28U U51A U74A, the self-cleavage came to 0.47. In the case of A2U A18U A21G A65G, the self-cleavage worked out at 0.23. Next, A2U C23U U49A: 0.3; A2G A45U U49A U74C: 0.35. Next, A2G U25C U31C U72C: 0.3; A2G U31A U72A: 0.35. Next, A2G C4U C11U A64U U66C: 0.09; A2U C11U U43A A45G: 0.37; A2G C34G A35U: 0.24.

Take A2G C11G U76C: the self-cleavage worked out at 0.48. With A2G C11G U51A U69C the figure was 0.07.

Turning to A2U A45C U49C U80C, the self-cleavage was 0.2. Next, A2G G6A C11U C17G U54C A57G U67A: 0.04; A2U A18U A45G U72A: 0.17; A2U C23U A56G U60A U72A U78C: 0.1. Regarding A2U A15G U26C U76C, the self-cleavage amounted to 0.36. With A2G G9A U58C A65U U72A U78C the figure was 0.12; with A2G G6A U31A A65G, 0.31; with A2G G33A U43C, 0.47. With A2U A15G A21G the figure was 0.32; with A2G C32A U74C, 0.39.

In the case of A2G G9A A21U U41C U78C, the self-cleavage was determined as 0.08.

A2G U43C G52C A57G U76C: the self-cleavage was 0.23. With A2G G8U U54G the figure was 0.19; with A2G C32A U58C U60C U72A, 0.15; with A2G C38U C62U, 0.1. A2G G10A A15C U25C A35G U43C: the self-cleavage worked out at 0.33.

Consider A2G A56G U78C, for which the self-cleavage stood at 0.28. With A2G U25C A45G A77G U80C, the self-cleavage is 0.07.

Turning to A2G U51C A65G, the self-cleavage came out at 0.07.

As for A2U A28G C39G A56G U60A G73A U80A, the self-cleavage is 0.23. Next, A2U A28G C39G A56G: 0.27. With A2G U41A U54G the figure was 0.1; with A2G C12U A75G, 1.08. Next, A2G G7A U41C U48C: 0.09; A2U A21G U31C A56G U74C: 0.13; A2G G10U U25C U58C U80C: 0.07.

Take A2G G24A A28G U41A A45G U72A: the self-cleavage turned out to be 0.07. Next, A2U A5U A21G G33C: 0.28. With A2G U26C A64G U67C the figure was 0.08; with A2U A56G U58C, 0.37. With A2G U26C U72A the figure was 0.14. As to A2G U43A G52A A64G C71U, the self-cleavage came out at 0.19.

In the case of A2G U25C U51A A77G, the self-cleavage came out at 0.25. With A2G G6A U41C the figure was 0.13; with A2G G42A U58G, 0. As for A2G U25C A35G A45G U49A U67C U69C, the self-cleavage came to 0.

Turning to A2U A28G A35U, the self-cleavage was 0.12. Next, A2G U48C U66C U72C: 0.08. Take A2G A45G U80C: the self-cleavage came out at 0.33. With A2G U25C U66C the figure was 0.32; with A2G G33A U43C A47G, 0.09. Next, A2G U60C A75U: 0.08.

A2G G52A A65G U69A U72C: the self-cleavage is 0.15. With A2G U43C G61A U72A the figure was 0.14; with A2G G22A C32U A45G A64G U72C U80C, 0.16. With A2G G33A U41A C71U U74A the figure was 0.08; with A2G U26A U54C, 0.71; with A2G A57G U58A, 0.55.

Turning to A2G G52A A77U, the self-cleavage amounted to 0.77. With A2G U41C U72G U76A the figure was 0.28. With A2U A15G U25C U31A A45U U49C U60A the figure was 0.08; with A2G G33A A35G, 0.07; with A2U A15U A45C, 0.29. Next, A2G G55A U58G: 0.1; A2G U72C A77G: 0.63.

As for A2G C11U A18G A21U U41A U43C A65G, the self-cleavage came out at 0.04.

For A2G U49C U54G A56G A65G U72C, the self-cleavage was 0.07. With A2U A15C A64G the figure was 0.73; with A2U A20G U25G C59U, 0.25. Consider A2U A13U U43A A45U U48C U51C U60A, for which the self-cleavage turned out to be 0.31. With A2G U41A U43C U60C U69C A77G the figure was 0.06; with A2G G9U U66C, 0.26. Next, A2U A3G U26C C50A A56U C68A U69G: 0.19; A2G C39G A77G: 0.43. Next, A2G C11A C32G U49C U69G: 0.06; A2U A28G A35G U60A: 0.18. As to A2G U26C U74C U80C, the self-cleavage worked out at 0.88. Next, A2G U26C G30A A57G: 0.31. With A2G C23G U78C the figure was 0.26; with A2G C34G U58A, 0.2; with A2U A15U U69A, 0.28.

A2G G9A U74C: the self-cleavage came to 0.39.

On to A2U A15G A45U A56G U72G, for which the self-cleavage is 0.23. With A2G G7U U48A U49C A57G A64U U76A the figure was 0.02. With A2G G6A C17U A21G U25C A47G U67G the figure was 0.17; with A2G G6A G24A, 0.27.

In the case of A2G G7A A28U A47G U69A C79U, the self-cleavage came to 0.06. For the variant A2G A57U C59A U69C, the self-cleavage was 0. Next, A2G G16U U41C U48C: 0.07; A2U A18U U41A G53A U54C: 0.57; A2G A35U U49A A57G U60C U67C U78C: 0.07.

Consider A2G C11U C12U U41C A56G U80C, for which the self-cleavage was found to be 0.32. With A2G G7U A65U the figure was 0.44. With A2U A13U U25C G52A C62A U66C the figure was 0.21; with A2U A20G U41A U49A A64G, 0.08. As to A2G U43C U72C G73U, the self-cleavage was determined as 0.48.

As for A2U A21G A35G G36C C37G G53U, the self-cleavage was 0.27.

Turning to A2G U51C U54A U58A, the self-cleavage was determined as 0.36. Next, A2U G7A A20G C29U A45C A56G G61A: 0.06; A2U A13G A15U A20G U41A: 0.06.

As to A2G A45G U48C U66A, the self-cleavage came out at 0.09. On to A2G G30C A57G, for which the self-cleavage worked out at 0.11. With A2U A13U G33C G42A A45U A57G U78C the figure was 0.1. Next, A2G A35G U43C A64U: 0.29; A2G C11G A47G A64G U67C: 0.11.

As for A2G G8A U31C A45G U51C U67A, the self-cleavage worked out at 0.19. With A2G G7A U49G U60A A65U the figure was 0.06.

Take A2U A5U G63C U78C: the self-cleavage is 0.44. With A2G C14U U26C the figure was 0.8; with A2G C29A G63U, 0.39; with A2G U72A A75G, 0.42. With A2U A20G C38A C39A the figure was 0.29; with A2G G10C C81U, 0.06. With A2G A35G U48C U69A the figure was 0.68; with A2U G6U U25C U60C, 0.06; with A2U C12U U58C U60C A64U U69C, 0.17. For the variant A2G U48G U67C U74C U78C, the self-cleavage worked out at 0.07. Next, A2G G7U G19A C23U A56U: 0.04.

As for A2U A15U U48C A65G, the self-cleavage was found to be 0.09.

Take A2G G7A U80C: the self-cleavage came to 0.48.

Consider A2U A13U A20G A45G A47U U48C, for which the self-cleavage stood at 0.03. A2G G16U G36C U43G U51C A75U: the self-cleavage is 0.1. With A2G G30A A35U U58G U80A the figure was 0.05; with A2U G7U A35C U58C U69A, 0.07. Next, A2U A5G C44G C50G U54C C62U: 0.06; A2U G6A G33U: 0.2; A2U C4U A18U C34U: 0.3. Next, A2U C34G U72A U80C: 0.07. Regarding A2U A3G A13G U54G, the self-cleavage was 0.62. Next, A2G G16A C23A U25C U43C: 0.19; A2U A20G U51A: 0.4. Next, A2G A45G U58C U76C: 0.03; A2U A20U G55A U69C: 0.17; A2G G6C C12U C71G C81U: 0.12. With A2U A3G G8A U67C the figure was 0.06; with A2U A5U A15U A18G, 0.32; with A2G U31C A35G C38U, 0.71.

Turning to A2G C4U U26C A64G U78C, the self-cleavage stood at 0.32. Consider A2G C23A U41C, for which the self-cleavage was 0.3.

Take A2G C4A A65G U80C: the self-cleavage amounted to 0.51.

A2G U58C U60G: the self-cleavage worked out at 0.32. With A2U A15G U41A A64G the figure was 0.2; with A2G G16A C40G U69A U76C, 0.08; with A2G U67C U69C U78A, 0.24. For the variant A2G U25C U41C U54A U78C, the self-cleavage was found to be 0.4. Turning to A2G A45U U54C U69A, the self-cleavage worked out at 0.18. Next, A2G G19A U26C G42A: 0.25; A2G G7A A35G A45G U54C A57G U69A: 0.04; A2G C23U C44A U48C: 0.35.

A2G C29U A47G U74C: the self-cleavage came to 0.37. On to A2G C4A C39U U48C U60A, for which the self-cleavage is 0.07. Regarding A2G U26C A35G, the self-cleavage is 0.92. Next, A2U G6A C32A U54C A64U: 0.08; A2U G7A A21C A56G G61A: 0.06; A2G G30A A35G U69A: 0.19. A2U A20G U25C U41A U60C A64G U72A: the self-cleavage was determined as 0.06. Next, A2U A28U A47G U48A U60G A64G: 0.06; A2G A47G U66C: 0.44. Next, A2G G6U A15G: 0.63; A2U C11G A13G A18C A75G U80C: 0.06. For A2G G10A A18G U43G, the self-cleavage stood at 0.25. For the variant A2G U25C A28U U31C U51A U54A C62U, the self-cleavage is 0.18.

A2U C12U C23A A45G U54A A77U: the self-cleavage stood at 0.23. Next, A2G C23G U60C U80A: 0.26; A2U A5G A18G U25C C40U U51A U60C: 0.5.

The values are drawn from the RNAGym collection of RNA variant scans (doi:10.1093/nar/gkz1192).
